Data taken from publication PMC8222345.
Results are given in words; binding and its absence hold for the method and conditions named. For part of these data: In cells and extracts the contact can be indirect. Some binding calls cover weakened binding; strength is not graded here.

Sequences of proteins named here, by UniProt entry; tags and fusion partners are left off. A change or cut given only in a name is not applied to a line headed by its entry. A line that says so, or that is headed by a name, gives the form on record, which may keep a tag or linker. Residues count along the entry.
UniProt O75838: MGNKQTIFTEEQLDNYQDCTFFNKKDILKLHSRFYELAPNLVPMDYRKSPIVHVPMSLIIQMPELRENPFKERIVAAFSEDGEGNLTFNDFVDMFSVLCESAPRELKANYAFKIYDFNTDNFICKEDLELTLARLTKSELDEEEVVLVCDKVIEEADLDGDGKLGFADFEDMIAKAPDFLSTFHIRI
UniProt Q9NRN9: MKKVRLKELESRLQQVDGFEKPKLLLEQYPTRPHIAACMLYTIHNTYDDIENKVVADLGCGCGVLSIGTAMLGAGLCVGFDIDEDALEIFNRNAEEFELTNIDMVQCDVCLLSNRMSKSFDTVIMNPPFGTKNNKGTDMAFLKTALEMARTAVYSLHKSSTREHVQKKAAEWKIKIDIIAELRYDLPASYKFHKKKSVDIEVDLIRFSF
HA-GST-Rheb Δ181–184 (Q15382, residues 1-180): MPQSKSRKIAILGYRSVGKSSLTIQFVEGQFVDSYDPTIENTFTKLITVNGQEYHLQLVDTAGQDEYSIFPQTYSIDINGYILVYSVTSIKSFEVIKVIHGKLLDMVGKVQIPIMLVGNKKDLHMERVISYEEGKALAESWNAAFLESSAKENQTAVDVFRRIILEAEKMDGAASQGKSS
HA-GST-Rheb C181S (Q15382, form named): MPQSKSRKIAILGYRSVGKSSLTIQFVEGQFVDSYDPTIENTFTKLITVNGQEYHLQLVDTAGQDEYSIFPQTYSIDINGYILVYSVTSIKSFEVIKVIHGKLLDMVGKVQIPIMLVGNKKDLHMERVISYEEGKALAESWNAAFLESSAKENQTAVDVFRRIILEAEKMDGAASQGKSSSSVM
HA-GST-Rheb D60I (Q15382, form named): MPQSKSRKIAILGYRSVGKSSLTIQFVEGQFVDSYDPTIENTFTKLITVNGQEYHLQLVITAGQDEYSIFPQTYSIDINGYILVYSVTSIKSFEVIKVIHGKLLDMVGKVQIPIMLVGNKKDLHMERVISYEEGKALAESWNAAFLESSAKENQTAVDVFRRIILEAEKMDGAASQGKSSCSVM
HA-GST-Rheb D60K (Q15382, form named): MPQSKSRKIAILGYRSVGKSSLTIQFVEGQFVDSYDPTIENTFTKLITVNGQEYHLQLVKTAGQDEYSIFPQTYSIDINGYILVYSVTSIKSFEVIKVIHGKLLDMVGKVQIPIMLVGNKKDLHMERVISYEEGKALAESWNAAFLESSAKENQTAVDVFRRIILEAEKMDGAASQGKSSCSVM
HA-GST-Rheb D60V (Q15382, form named): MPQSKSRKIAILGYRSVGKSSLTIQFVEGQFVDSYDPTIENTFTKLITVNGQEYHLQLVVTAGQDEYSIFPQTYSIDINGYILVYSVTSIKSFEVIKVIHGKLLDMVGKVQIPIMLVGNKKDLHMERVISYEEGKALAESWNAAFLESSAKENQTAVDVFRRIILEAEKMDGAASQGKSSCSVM
HA-GST-Rheb S20N (Q15382, form named): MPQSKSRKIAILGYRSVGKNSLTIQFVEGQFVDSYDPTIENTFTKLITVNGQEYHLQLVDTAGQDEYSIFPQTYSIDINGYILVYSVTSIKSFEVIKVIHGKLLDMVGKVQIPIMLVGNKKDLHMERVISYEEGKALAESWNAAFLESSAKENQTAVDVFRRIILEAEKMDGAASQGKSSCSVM
UniProt Q8N122: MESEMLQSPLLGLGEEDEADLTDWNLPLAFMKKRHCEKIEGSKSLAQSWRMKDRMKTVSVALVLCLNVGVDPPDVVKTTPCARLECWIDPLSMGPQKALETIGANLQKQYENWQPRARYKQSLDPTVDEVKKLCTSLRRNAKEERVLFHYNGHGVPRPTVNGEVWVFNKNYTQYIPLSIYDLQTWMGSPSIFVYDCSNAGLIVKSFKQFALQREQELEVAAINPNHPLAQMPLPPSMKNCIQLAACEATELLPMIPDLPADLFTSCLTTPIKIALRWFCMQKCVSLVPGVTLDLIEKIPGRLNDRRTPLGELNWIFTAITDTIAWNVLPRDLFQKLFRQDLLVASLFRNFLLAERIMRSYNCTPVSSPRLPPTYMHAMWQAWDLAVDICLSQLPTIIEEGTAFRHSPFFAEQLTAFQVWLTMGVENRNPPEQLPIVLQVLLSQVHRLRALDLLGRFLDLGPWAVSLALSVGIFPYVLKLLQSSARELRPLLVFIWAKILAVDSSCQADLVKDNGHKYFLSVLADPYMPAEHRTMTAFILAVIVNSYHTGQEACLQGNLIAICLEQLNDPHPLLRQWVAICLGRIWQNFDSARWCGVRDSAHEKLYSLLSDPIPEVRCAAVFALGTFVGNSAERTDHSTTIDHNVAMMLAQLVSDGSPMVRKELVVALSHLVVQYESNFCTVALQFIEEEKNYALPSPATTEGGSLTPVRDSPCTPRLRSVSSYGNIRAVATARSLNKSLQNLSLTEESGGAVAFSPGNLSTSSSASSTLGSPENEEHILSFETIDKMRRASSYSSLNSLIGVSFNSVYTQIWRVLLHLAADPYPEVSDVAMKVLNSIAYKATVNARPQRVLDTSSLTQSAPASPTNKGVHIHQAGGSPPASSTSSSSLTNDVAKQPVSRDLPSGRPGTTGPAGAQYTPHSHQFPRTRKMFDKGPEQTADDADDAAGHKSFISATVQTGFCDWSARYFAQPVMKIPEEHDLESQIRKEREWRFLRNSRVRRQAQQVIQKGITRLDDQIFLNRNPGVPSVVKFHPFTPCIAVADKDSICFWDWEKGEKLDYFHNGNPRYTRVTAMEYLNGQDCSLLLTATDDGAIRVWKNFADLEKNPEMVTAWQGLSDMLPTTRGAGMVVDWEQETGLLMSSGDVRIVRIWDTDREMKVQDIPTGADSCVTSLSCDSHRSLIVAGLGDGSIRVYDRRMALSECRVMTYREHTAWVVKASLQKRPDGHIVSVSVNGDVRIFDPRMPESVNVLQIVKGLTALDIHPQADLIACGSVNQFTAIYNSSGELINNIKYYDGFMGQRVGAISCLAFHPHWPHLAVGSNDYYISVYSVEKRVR

How the values were obtained:
[1] = molecular target: GFP-hCIB2 (calcium and integrin binding protein 2) (human) (UniProt O75838); experiment: nanoscale pulldown 2.0 (NanoSPD); COS-7 cells transfected with 1 µg each of nanoTRAP (myo10 HMM-GFP nanobody), GFP-tagged bait and prey; co-accumulation of the prey with the bait at filopodia tips in fixed cells, confocal microscopy, prey/bait fluorescence ratio
GFP-hMETTL5 (human) = GFP-hMETTL5 (human) (UniProt Q9NRN9); experiment: as above
[2] = molecular target: GFP-hCIB2 (calcium and integrin binding protein 2) (human) (UniProt O75838); experiment: nanoscale pulldown 2.0 (NanoSPD); COS-7 cells with nanoTRAP, GFP-hCIB2 (bait) and both myc-mTOR and HA-mCherry-Raptor expressed together; accumulation at filopodia tips
tdTomato-CIB2 (WT) = tdTomato-CIB2 (WT) (UniProt O75838); experiment: co-IP; HEK293 cells transfected with the indicated plasmids (PEI), lysed 36 h later in IP buffer (0.3% CHAPS, 40 mM HEPES, 2.5 mM MgCl2); HA or GST beads, 3 h or overnight at 4 °C, four washes, immunoblot; in Fig. 8f also cells treated with the farnesyl transferase inhibitor lonafarnib (1000 nM)
HA-GST-Rheb (WT) [3] = molecular target: HA-GST-Rheb (WT) (UniProt Q15382); experiment: pull-down; HA-GST-Rheb (WT) from HEK293 lysate immobilised on GST beads, washed, loaded with 1 mM GDP (1 h, 37 °C, stopped with 60 mM MgCl2); cleared tdTomato-CIB2 lysate added, rotation overnight, immunoblot; only the target purified
HA-GST-Rheb (WT) [4] = molecular target: HA-GST-Rheb (WT) (UniProt Q15382); experiment: pull-down; HA-GST-Rheb (WT) from HEK293 lysate immobilised on GST beads, washed, loaded with 100 µM GTPγS (1 h, 37 °C, stopped with 60 mM MgCl2); cleared tdTomato-CIB2 lysate added, rotation overnight, immunoblot; only the target purified
HA-GST-Rheb (WT) [5] = molecular target: HA-GST-Rheb (WT) (UniProt Q15382); experiment: co-IP; HEK293 cells transfected with the indicated plasmids (PEI), lysed 36 h later in IP buffer (0.3% CHAPS, 40 mM HEPES, 2.5 mM MgCl2); HA or GST beads, 3 h or overnight at 4 °C, four washes, immunoblot; in Fig. 8f also cells treated with the farnesyl transferase inhibitor lonafarnib (1000 nM)
HA-GST-Rheb C181S = HA-GST-Rheb C181S (UniProt Q15382); experiment: as above
HA-GST-Rheb D60I = HA-GST-Rheb D60I (UniProt Q15382); experiment: as above
HA-GST-Rheb D60K = HA-GST-Rheb D60K (UniProt Q15382); experiment: as above
HA-GST-Rheb D60V = HA-GST-Rheb D60V (UniProt Q15382); experiment: as above
HA-GST-Rheb S20N = HA-GST-Rheb S20N (UniProt Q15382); experiment: as above
HA-GST-Rheb Δ181–184 = HA-GST-Rheb Δ181–184 (UniProt Q15382); experiment: as above

HA-GST-Rheb (prey in COS-7 cells) (from UniProt Q15382 1-184)
binding [1]: binds | binding (GFP-hMETTL5 (human)): no binding

HA-mCherry-Raptor (from UniProt Q8N122 1-1335)
binding [2]: binds | binding [1]: binds | binding (GFP-hMETTL5 (human)): no binding

Raptor (exogenously expressed in HEK293 cells) (from UniProt Q8N122 1-1335)
binding (tdTomato-CIB2 (WT)): binds

tdTomato-CIB2 (WT) (from UniProt O75838 1-187)
binding (HA-GST-Rheb (WT) [3]): binds | binding (HA-GST-Rheb (WT) [4]): binds | binding (HA-GST-Rheb (WT) [5]): binds | binding (HA-GST-Rheb C181S): binds | binding (HA-GST-Rheb D60I): binds | binding (HA-GST-Rheb D60K): binds | binding (HA-GST-Rheb D60V): binds | binding (HA-GST-Rheb S20N): binds | binding (HA-GST-Rheb Δ181–184): binds
